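Protocol summary: plate cells (96-well), add compound at 5 concentrations, incubate 48 h, interpolate endpoints linearly. Abbreviation: GI50, concentration required for 50% inhibition of growth. Definition used: TGI = concentration required for complete inhibition of growth.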
Test system: NCI-H322M lung
Assay: NCI tumour cell line growth inhibition, 48 h

SMILES	GI50	TGI
[2H]C([2H])([2H])Oc1ccc2ncc(C#Cc3cncc(C(=O)Nc4ccc(CN5CCN(C)CC5)c(C(F)(F)F)c4)c3)n2n1	0.99 µM	13.5 µM
O=C(COc1ccc(NC(=O)Nc2ccc(Cl)c(Cl)c2)cc1)N=Nc1c(O)[nH]c2ccccc12	9.64 µM	31.1 µM
Cc1cc(C2(c3cc(C)c(OCC(O)CNc4c(C)n(C)n(-c5ccccc5)c4=O)cc3C(C)C)OC(=O)c3ccccc32)c(C(C)C)cc1OCC(O)CNc1c(C)n(C)n(-c2ccccc2)c1=O (stereo unspecified)	22.2 µM	> 100 µM

From PubChem BioAssay (NCI)
